The other results are listed elsewhere or left out.

The target of this assay is T1, OsWOX13 (Oryza sativa, UniProt Q5QMM3 1-267).
T1 sequence: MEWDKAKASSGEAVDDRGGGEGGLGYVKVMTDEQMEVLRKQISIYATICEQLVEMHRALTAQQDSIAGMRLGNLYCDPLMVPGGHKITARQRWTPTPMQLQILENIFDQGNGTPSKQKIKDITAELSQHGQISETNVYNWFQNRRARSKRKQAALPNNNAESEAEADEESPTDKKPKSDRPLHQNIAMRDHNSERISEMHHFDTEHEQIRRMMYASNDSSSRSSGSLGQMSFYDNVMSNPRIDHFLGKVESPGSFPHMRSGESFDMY
The assay is described as follows: protein-binding microarray (RPBM); PBS, 2% BSA, 51.3 ng/ul salmon testes DNA, 50 uM zinc acetate, 200 nM TF, 25 C, 1 h; high values mean tight binding. Conditions: protein: recombinant; tags: N-terminal polyhistidine and DsRed monomer fusion (pET32a); label: CyDye5-dUTP incorporated in the synthesized complementary strand; 3' TTTTT single-stranded linker to array surface; dsDNA, one strand shown. An outline of the steps:
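In PBS with 2% BSA, salmon testes DNA and 50 µM zinc acetate, 200 nM protein was incubated on a custom Agilent array at 25 °C for 1 h and then washed off. The array had been made double-stranded by primer extension with Cy5-dUTP and blocked with 2% BSA. The proteins were transcription factors fused N-terminally to polyhistidine and DsRed, expressed in E. coli BL21-CodonPlus and purified on Ni–NTA. The binding signal is per-feature fluorescence intensity (arbitrary units) from an Axon 4000B scanner.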
Turning to “AGTTTCATAAATTACACTGTAACTTACAAGAAAATGCACTCGGAGTCACCTAGTGCAG”, the binding signal is 4690 fluorescence intensity (a.u.).

As for “TCTGACCATTATTAATTTCTAGCAACTAGCAATTTTGTGCCGGAGTCACCTAGTGCAG”, the binding signal was 6120 fluorescence intensity (a.u.). As to “ATTGATTGATAAACCCTACTGCTTCTCGCCGCCGCCGCCGCGGAGTCACCTAGTGCAG”, the binding signal is 55100 fluorescence intensity (a.u.).

Regarding “GAGTTAATCAATGCTATAAACTCCCTGATGCTTGATGAGACGGAGTCACCTAGTGCAG”, the binding signal was 4250 fluorescence intensity (a.u.). The same measure for “TTCCAGGGTGACAAGATTAATTAATTCATTAAACTTGTCGCGGAGTCACCTAGTGCAG”: 15400 fluorescence intensity (a.u.). Under “AAAGCGAAAAGTCTAATTAACACATGATTAGTTAAGTATTCGGAGTCACCTAGTGCAG” stands 17200 fluorescence intensity (a.u.); under “AATTAAATAATTTAGAAGCACCGACAGAATACATGATGGTCGGAGTCACCTAGTGCAG”, 4450 fluorescence intensity (a.u.); under “GTAGGTAATTAGTACCTCCGTCCCAAAATAAATGTAGCCTCGGAGTCACCTAGTGCAG”, 11300 fluorescence intensity (a.u.).

In the case of “TTTAGATTGCTGCTATATTCTGAAATAGAGCGAGCGGGTACGGAGTCACCTAGTGCAG”, the binding signal was 12100 fluorescence intensity (a.u.). For the sequence “AATTAATCACTTGCTAATGACACGTCTCATTTTGCGTGCTCGGAGTCACCTAGTGCAG”, the binding signal was 24000 fluorescence intensity (a.u.).

Regarding “GCCTAACTTAACTATTGAAATGGCCTATTTTCTTAGGCATCGGAGTCACCTAGTGCAG”, the binding signal was 3330 fluorescence intensity (a.u.). Take “GATGGATTATAATTAGGCTTAAAAGATTCGTCTCGTGATTCGGAGTCACCTAGTGCAG”: the binding signal is 23000 fluorescence intensity (a.u.). Regarding “GGTGATCTTGATTTGTTTAGCCCAGCTGTGGGGCAAGATCCGGAGTCACCTAGTGCAG”, the binding signal is 11400 fluorescence intensity (a.u.).

Take “TTTATGTAATTATCATTTATTTTATTATGACTTGATTCGTCGGAGTCACCTAGTGCAG”: the binding signal was 23700 fluorescence intensity (a.u.).

For “CATTCTTAGTAAATTAATTAAGAAGTATGTCTAGACAAGGCGGAGTCACCTAGTGCAG”, the binding signal is 9380 fluorescence intensity (a.u.). In the case of “AAGATGATTTCTCCAGTAGTGGAACTGATAGGTAAAGGTCCGGAGTCACCTAGTGCAG”, the binding signal is 14500 fluorescence intensity (a.u.). For the sequence “AATAGTTAACCATGACAATTATTCGAGTAATCTATAACACCGGAGTCACCTAGTGCAG”, the binding signal was 4460 fluorescence intensity (a.u.).

As to “CACCTATCCACCACACATCTGATTGAATGAAAATTAGAAACGGAGTCACCTAGTGCAG”, the binding signal was 16800 fluorescence intensity (a.u.).

For “CATTTTAATAGTATAAATTTTGACAGAAATATTTGGATGTCGGAGTCACCTAGTGCAG”, the binding signal was 4510 fluorescence intensity (a.u.). With “GGATTAATTACAGGACCTCTAATTTGTACACAGTGATGTACGGAGTCACCTAGTGCAG”, the binding signal is 29500 fluorescence intensity (a.u.). Under “AGATCAATCCATTTGATGGATTAAAATTTACAAATAGATGCGGAGTCACCTAGTGCAG” stands 10600 fluorescence intensity (a.u.); under “TTTGGATGTGATGTGATGTGATGGAAAGTTGGAAGTTAGGCGGAGTCACCTAGTGCAG”, 4790 fluorescence intensity (a.u.); under “TAACTACCTCAAGGTATTGATTGATTATACTTTTGGTTCACGGAGTCACCTAGTGCAG”, 16500 fluorescence intensity (a.u.). The same measure for “CCCCTTCAATCTCGATCTGTTAATTAAATCCATAGAAGAGCGGAGTCACCTAGTGCAG”: 12800 fluorescence intensity (a.u.).

Regarding “ATCAAATAATTAAAAGAGCTTTCGAACCCAGGTTGTCTAGCGGAGTCACCTAGTGCAG”, the binding signal is 4860 fluorescence intensity (a.u.). Take “CTTTGGATTTCTGTGATATATGATTGAAATATAGCTGCCGCGGAGTCACCTAGTGCAG”: the binding signal was 18700 fluorescence intensity (a.u.). Under “ACATGTAATAGTTGTGATTAAATTGCAGCTGAACTTGTAGCGGAGTCACCTAGTGCAG” stands 11100 fluorescence intensity (a.u.); under “TCTCACGAGTATGATTGTTTGTTCCTCATACCACATTCCCCGGAGTCACCTAGTGCAG”, 5060 fluorescence intensity (a.u.). For “TGTGAGATTGGTGGATCTCACATAAGCAATTTAATTGCCACGGAGTCACCTAGTGCAG”, the binding signal is 6610 fluorescence intensity (a.u.). As for “ATATATATATATATATATATAAATACATTAAATATATTTTCGGAGTCACCTAGTGCAG”, the binding signal is 3380 fluorescence intensity (a.u.).

In the case of “AGGTGACAAGTTAAACTAATATTATGTACCTAGATACGTGCGGAGTCACCTAGTGCAG”, the binding signal was 4860 fluorescence intensity (a.u.). Under “TGAAATTAATTTGATGTGATAGATTTCTAGGTTTTCTTTGCGGAGTCACCTAGTGCAG” stands 64300 fluorescence intensity (a.u.); under “AACATAATTAAAACTCGGCGTCGAAGATACGAGAGATGTACGGAGTCACCTAGTGCAG”, 7030 fluorescence intensity (a.u.); under “TAAAGAACTCGATAATTGCAGATGGATTAGTCATCTGAGGCGGAGTCACCTAGTGCAG”, 6860 fluorescence intensity (a.u.). The same measure for “GTTTAGATTTATTGTATTAGAATGTGCTACATTCAATTCTCGGAGTCACCTAGTGCAG”: 4190 fluorescence intensity (a.u.). The same measure for “CCGTGTTAATTACGGACAGAATAACCTCCATATACGTGGTCGGAGTCACCTAGTGCAG”: 22800 fluorescence intensity (a.u.); for “TTAATTGGTGGTCGTATTATTTGCATTATTTTCTTACAAGCGGAGTCACCTAGTGCAG”: 34200 fluorescence intensity (a.u.); for “GGACATGACATCCTATTAACAGCCATCGCACGAAATTAATCGGAGTCACCTAGTGCAG”: 4830 fluorescence intensity (a.u.).

In the case of “GAAACGAAACAGGGGATCAATCAAACGAAACGGCGCCAAACGGAGTCACCTAGTGCAG”, the binding signal is 4490 fluorescence intensity (a.u.). As to “AATCCCTCAATCATTCTTACTTCTCTAGGCTCGTATAGTACGGAGTCACCTAGTGCAG”, the binding signal is 4690 fluorescence intensity (a.u.). Under “ATAAATAAAATAGATTAATATGAGATATATTAGTCCACAACGGAGTCACCTAGTGCAG” stands 11300 fluorescence intensity (a.u.); under “GCGCTAATTTAACTGAACTTATAGTGGCCTTCATTATCATCGGAGTCACCTAGTGCAG”, 16600 fluorescence intensity (a.u.).
